# Laboratory results from the supplement of paper PMC8728848.
# Some of the results follow.
# B1: Als1 (Candida albicans), P46590 (protein)
# chain: KTITGVFDSFNSLTWSNAANYAFKGPGYPTWNAVLGWSLDGTSANPGDTFTLNMPCVFKYTTSQTSVDLTADGVKYATCQFYSGEEFTTFSTLTCTVNDALKSSIKAFGTVTLPIAFNVGGTGSSTDLEDSKCFTAGTNTVTFNDGDKDISIDVEFEKSTVDPSGYLYASRVMPSLNKVTTLFVAPQCENGYTSGTMGFSSSNGDVAIDCSNIHIGITKGLNDWNYPVSSESFSYTKTCTSNGIQIKYQNVPAGYRPFIDAYISATDVNQYTLAYTNDYTCAGSRLQSKPFTLRWTGYKNSDAGSNGIVIVATTRTVTDSTTAVTTLPFNPSVDKTKTIEILQPIPTTTITTSYVGVTTSYLTKTAPIGETATVIVDVPYHTTTTVTSEWTGTITTTTTRTNPTDSIDTVVVQVP
# Key:
# Assay in all cases: glycan array binding signal (z-score within array); higher = stronger binding
# Conditions in all cases: glycan notation: IUPAC condensed, linker removed
# Fuc(a1-2)Gal = target: Fuc(a1-2)Gal
# How it was run: (§1)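 The Consortium for Functional Glycomics database supplied 3228 glycan arrays, of which those lacking an available protein sequence were dropped. The binding signal, a within-array Z-score, was averaged across arrays of the same protein sequence and across linkers. Negative scores can be read as non-binding.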
# Fuc(a1-2)Gal(b1-3)GalNAc = target: Fuc(a1-2)Gal(b1-3)GalNAc
# How it was run: as §1
# [1] = target: Fuc(a1-2)Gal(b1-3)GalNAc(a1-3)[Fuc(a1-2)]Gal(b1-4)Glc
# How it was run: as §1
# [2] = target: Fuc(a1-2)Gal(b1-3)GalNAc(a1-3)[Fuc(a1-2)]Gal(b1-4)GlcNAc
# How it was run: as §1
# [3] = target: Fuc(a1-2)Gal(b1-3)GalNAc(b1-3)Gal
# How it was run: as §1
# [4] = target: Fuc(a1-2)Gal(b1-3)GalNAc(b1-3)Gal(a1-4)Gal(b1-4)Glc
# How it was run: as §1
# [5] = target: Fuc(a1-2)Gal(b1-3)GalNAc(b1-4)[Neu5Ac(a2-3)]Gal(b1-4)Glc
# How it was run: as §1
# Fuc(a1-2)Gal(b1-3)GlcNAc = target: Fuc(a1-2)Gal(b1-3)GlcNAc
# How it was run: as §1
# [6] = target: Fuc(a1-2)Gal(b1-3)GlcNAc(b1-2)Man(a1-3)[Fuc(a1-2)Gal(b1-3)GlcNAc(b1-2)Man(a1-6)]Man(b1-4)GlcNAc(b1-4)GlcNAc
# How it was run: as §1
# [7] = target: Fuc(a1-2)Gal(b1-3)GlcNAc(b1-2)Man(a1-3)[Fuc(a1-2)Gal(b1-3)GlcNAc(b1-2)Man(a1-6)]Man(b1-4)GlcNAc(b1-4)[Fuc(a1-6)]GlcNAc
# How it was run: as §1
# [8] = target: Fuc(a1-2)Gal(b1-3)GlcNAc(b1-3)Gal(b1-4)Glc
# How it was run: as §1
# [9] = target: Fuc(a1-2)Gal(b1-3)GlcNAc(b1-3)GalNAc
# How it was run: as §1
# [10] = target: Fuc(a1-2)Gal(b1-3)GlcNAc(b1-3)[Fuc(a1-2)Gal(b1-3)GlcNAc(b1-6)]GalNAc
# How it was run: as §1
# [11] = target: Fuc(a1-2)Gal(b1-3)GlcNAc(b1-3)[Gal(b1-4)GlcNAc(b1-6)]Gal(b1-4)Glc
# How it was run: as §1
# [12] = target: Fuc(a1-2)Gal(b1-3)GlcNAc(b1-3)[Neu5Ac(a2-6)Gal(b1-4)GlcNAc(b1-6)]Gal(b1-4)Glc
# How it was run: as §1
# [13] = target: Fuc(a1-2)Gal(b1-3)GlcNAc6S
# How it was run: as §1
# [14] = target: Fuc(a1-2)Gal(b1-3)[Fuc(a1-4)]GlcNAc
# How it was run: as §1
# [15] = target: Fuc(a1-2)Gal(b1-3)[Fuc(a1-4)]GlcNAc(b1-2)Man(a1-3)[Fuc(a1-2)Gal(b1-3)[Fuc(a1-4)]GlcNAc(b1-2)Man(a1-3)]Man(b1-4)GlcNAc(b1-4)GlcNAc
# How it was run: as §1
# [16] = target: Fuc(a1-2)Gal(b1-3)[Fuc(a1-4)]GlcNAc(b1-2)Man(a1-3)[Fuc(a1-2)Gal(b1-3)[Fuc(a1-4)]GlcNAc(b1-2)Man(a1-6)]Man(b1-4)GlcNAc(b1-4)[Fuc(a1-6)]GlcNAc(b1-4)[Fuc(a1-6)]GlcNAc
# How it was run: as §1
# [17] = target: Fuc(a1-2)Gal(b1-3)[Fuc(a1-4)]GlcNAc(b1-3)[Fuc(a1-3)[Gal(b1-4)]GlcNAc(b1-6)]Gal(b1-4)Glc
# How it was run: as §1
# [18] = target: Fuc(a1-2)Gal(b1-3)[Fuc(a1-4)]GlcNAc(b1-3)[Gal(b1-4)GlcNAc(b1-6)]Gal(b1-4)Glc
# How it was run: as §1
# [19] = target: Fuc(a1-2)Gal(b1-4)Fuc(a1-3)]GlcNAc(b1-2)Man(a1-3)[Fuc(a1-2)Gal(b1-4)[Fuc(a1-3)]GlcNAc(b1-2)Man(a1-6)]Man(b1-4)GlcNAc(b1-4)GlcNAc
# How it was run: as §1
binder,measurement,setting,value
B1,glycan array binding signal (z-score),Fuc(a1-2)Gal,-0.33
same,glycan array binding signal (z-score),Fuc(a1-2)Gal(b1-3)GalNAc,-0.221
same,glycan array binding signal (z-score),[1],-0.242
same,glycan array binding signal (z-score),[2],-0.216
same,glycan array binding signal (z-score),[3],3.32
same,glycan array binding signal (z-score),[4],-0.612
same,glycan array binding signal (z-score),[5],-0.178
same,glycan array binding signal (z-score),Fuc(a1-2)Gal(b1-3)GlcNAc,-0.524
same,glycan array binding signal (z-score),[6],-0.318
same,glycan array binding signal (z-score),[7],-0.229
same,glycan array binding signal (z-score),[8],-0.544
same,glycan array binding signal (z-score),[9],-0.107
same,glycan array binding signal (z-score),[10],-0.472
same,glycan array binding signal (z-score),[11],-0.807
same,glycan array binding signal (z-score),[12],0.148
same,glycan array binding signal (z-score),[13],-0.587
same,glycan array binding signal (z-score),[14],0.197
same,glycan array binding signal (z-score),[15],0.22
same,glycan array binding signal (z-score),[16],-0.25
same,glycan array binding signal (z-score),[17],-0.205
same,glycan array binding signal (z-score),[18],0.325
same,glycan array binding signal (z-score),[19],0.691
